Only a part is listed here, and it is no random draw.
Target: Protein kinase C theta type (Homo sapiens) (UniProt Q04759)
Details: at 0.1 µM
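Note: reported figure is the mean percent inhibition of PKC-theta, from the GSK PKIS screen.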

UniProt Q04759, sequence (Q04759 whole entry, looked up): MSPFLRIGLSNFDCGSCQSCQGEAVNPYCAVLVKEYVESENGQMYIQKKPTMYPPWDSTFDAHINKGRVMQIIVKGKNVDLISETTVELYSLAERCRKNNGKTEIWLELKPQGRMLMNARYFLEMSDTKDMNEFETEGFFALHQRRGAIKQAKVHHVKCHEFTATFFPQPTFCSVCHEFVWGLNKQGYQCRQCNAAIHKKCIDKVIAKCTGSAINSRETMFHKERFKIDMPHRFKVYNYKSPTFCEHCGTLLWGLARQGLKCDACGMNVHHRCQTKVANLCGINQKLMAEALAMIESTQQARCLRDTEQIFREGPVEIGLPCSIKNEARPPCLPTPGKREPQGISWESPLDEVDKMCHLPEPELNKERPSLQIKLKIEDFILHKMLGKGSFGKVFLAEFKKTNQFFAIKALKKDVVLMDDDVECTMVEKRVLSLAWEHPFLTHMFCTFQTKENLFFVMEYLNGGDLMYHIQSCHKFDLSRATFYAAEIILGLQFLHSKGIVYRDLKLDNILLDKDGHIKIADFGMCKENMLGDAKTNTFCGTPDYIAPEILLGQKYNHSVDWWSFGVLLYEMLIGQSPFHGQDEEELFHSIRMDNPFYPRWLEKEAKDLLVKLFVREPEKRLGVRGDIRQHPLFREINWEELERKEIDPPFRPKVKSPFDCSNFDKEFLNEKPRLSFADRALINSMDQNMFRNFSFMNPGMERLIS

| Structure (SMILES) | inhibition |
| --- | --- |
| O=C1NC(=O)C(c2ccccc2Cl)=C1Nc1cc(Cl)c(O)c(Cl)c1 | 2.67% |
| Fc1ccc(-c2ncn(C3CCNCC3)c2-c2ccnc(Oc3cccc(F)c3)n2)cc1 | 3.01% |
| O=C1NC(=O)C(c2cccc([N+](=O)[O-])c2)=C1Nc1cc(Cl)c(O)c(Cl)c1 | 0.09% |
| Fc1ccc(Oc2nccc(-c3c(-c4ccc(F)cc4)ncn3C3CCNCC3)n2)cc1 | 2.43% |
| CC(C)(C)c1ccc(Oc2nccc(-c3c(-c4ccc(F)cc4)ncn3C3CCNCC3)n2)cc1 | 1.98% |
| COc1ccccc1Oc1nccc(-c2c(-c3ccc(F)cc3)ncn2C2CCNCC2)n1 | 3.73% |
| Cc1cccc(Oc2nccc(-c3c(-c4ccc(F)cc4)ncn3C3CCNCC3)n2)c1C | 2.35% |
| Fc1ccc(-c2ncn(C3CCNCC3)c2-c2ccnc(Oc3cccc(C(F)(F)F)c3)n2)cc1 | 2.88% |
| Fc1ccc(-c2ncn(C3CCNCC3)c2-c2ccnc(Oc3ccc(Cl)cc3)n2)cc1 | 0.79% |
| CS(=O)(=O)c1ccc(Oc2nccc(-c3c(-c4ccc(F)cc4)ncn3C3CCNCC3)n2)cc1 | 2.46% |
| NC(=O)CCc1ccccc1Oc1nccc(-c2c(-c3ccc(F)cc3)ncn2C2CCNCC2)n1 | -0.31% |
| O=C1NC(=O)C(c2ccccc2)=C1Nc1ccccc1 | 4.77% |
| COc1ccccc1C1=C(Nc2ccccc2)C(=O)NC1=O | 2.01% |
| O=C(O)c1ccc(Oc2nccc(-c3c(-c4ccc(F)cc4)ncn3C3CCNCC3)n2)cc1 | 2.88% |
